The supplement of paper PMC3334620
The full ranking holds about 33,000 sequences; the median of “E-score (-0.5 to 0.5)” is about -0.016, and the highest 2% start at about 0.32. Some of the results follow.

Biological target: T1, Stp1 (UniProt B3LFK1)
T1 sequence: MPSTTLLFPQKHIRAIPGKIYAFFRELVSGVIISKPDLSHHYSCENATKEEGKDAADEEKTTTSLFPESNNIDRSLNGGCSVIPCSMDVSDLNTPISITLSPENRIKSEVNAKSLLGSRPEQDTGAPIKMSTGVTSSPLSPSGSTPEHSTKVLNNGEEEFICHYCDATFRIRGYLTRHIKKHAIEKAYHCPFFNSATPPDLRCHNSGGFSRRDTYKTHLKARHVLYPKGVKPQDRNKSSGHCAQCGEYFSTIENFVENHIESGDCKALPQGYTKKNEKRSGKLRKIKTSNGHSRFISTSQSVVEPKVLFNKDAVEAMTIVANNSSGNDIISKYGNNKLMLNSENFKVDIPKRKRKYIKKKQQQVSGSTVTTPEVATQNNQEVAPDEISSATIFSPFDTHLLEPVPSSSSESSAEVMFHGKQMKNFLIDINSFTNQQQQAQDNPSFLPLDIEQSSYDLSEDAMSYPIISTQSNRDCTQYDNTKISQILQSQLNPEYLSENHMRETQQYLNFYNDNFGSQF
Assay: PBM E-score (8-mer binding enrichment) (E-score (-0.5 to 0.5)); higher = stronger / more preferred TF binding; most listed sequences are background and not binding sites
Details: protein concentration: 200 nM; construct: GST-full length
How it was run: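 Each ungapped eight-base word and its reverse complement, pooled, received an E-score from the Universal PBM Analysis Suite. Underlying scans, normalised with masliner, recorded fluorescent anti-GST bound to GST-tagged yeast transcription factors. These were applied at about 100-200 nM to universal all-10-mer Agilent arrays double-stranded by primer extension.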

Sequence | PBM E-score
GCTAGCTA | -0.111
ATCTCGTA | 0.166
GGTTAGAA | -0.217
TACTAGAA | 0.191
GAGCCCAA | 0.0694
CTCGAGTC | 0.0231
CATGCACC | -0.157
ATTATATC | -0.0228
ATGGAGAC | -0.127
AAAGTTAT | 0.113
CCAGATAG | -0.136
CGGTATTC | -0.0265
GGGTTGCA | -0.219
AAGATTGC | 0.0941
CTGCGTGA | 0.0745
GGTATGAA | -0.0273
CGTGCTTA | 0.219
ACTATTCT | -0.0825
GCCATCCC | -0.0793
CCTACATC | -0.191
GCTCATCA | 0.0105
ACAGACAC | 0.0213
ACACCGAT | -0.123
CAATATAC | 0.0063
CTCGCGTC | -0.113

Sequence | PBM E-score
CCGGCGTC | 0.0446
ACCGCATA | 0.0344
AGTTGACA | 0.142
TCGATCAA | -0.0721
AGAACGCA | -0.00423
TGAGCAAA | 0.0471
AGAATTGC | 0.08
CAATAACA | 0.0711
CCAAGGAC | -0.0498
CAAGCTGC | 0.0162
AGTGCTAC | -0.155
ATGTCCGC | 0.0811
CTGTCTGA | 0.0893
TCTGTCAA | 0.13
CCCTAGGA | -0.314
AGGTACAT | -0.148
CTCGTATC | 0.0757
CAACAGTC | -0.0399
CGGTTTCC | 0.0565
AATCACGA | -0.117
CACAAAAC | 0.0388
CCCCATCC | -0.0257
GAATTATC | 0.0699
CGTGCATA | 0.168
TTAGATAA | -0.0192

Sequence | PBM E-score
TCGGACAA | 0.0763
GACATCGC | -0.25
ATAAGGTG | 0.111
ATGGTCCA | -0.133
TATACTCA | -0.0648
ACGAACCC | -0.0646
CCGAAGAA | 0.0221
AGTCCTTC | -0.35
ATAGGAAA | 0.0095
GCCAAACC | -0.221
GTGAGACA | -0.0539
ATCCTATC | -0.00077
AGTCAGTA | 0.134
ATAATTTC | 0.24
GCTCCTCA | -0.106
CAAAGCAA | 0.136
CGAGCGGC | 0.416
CGATGCCG | 0.415
CCCATCCA | 0.00825
AATTCCGG | 0.0797
AGTCAGTC | -0.089
GAGCTAAC | -0.0397
ACCCCAAT | -0.242
GCCGGCCA | -0.0401
ACTCAACC | -0.0254

Sequence | PBM E-score
CCCGCGTA | -0.0603
TACCGGAA | -0.0487
CTCGGTAC | -0.335
CCCGACAA | 0.13
AGTAGAGA | -0.0676
CTAGGACC | -0.409
GAGCGGGC | -0.0929
ATGGGCAC | 0.232
AGGATGAA | -0.154
CGTCTGTA | 0.00232
AGTATAAA | 0.297
GCGCTCAC | 0.0573
ACAATGGG | -0.134
AGTCCCGG | -0.236
GAAACCCA | 0.0619
CTTAACAA | 0.169
AAAGCTCA | -0.152
AGACAATC | 0.0749
AAGCCTAG | -0.0261
CTGCACGC | -0.0205
ACAGATCG | 0.0507
GCGCTATA | 0.0289
AGCTGCGG | 0.0478
CACGTTAA | 0.103
TGAGACCA | -0.118

Sequence | PBM E-score
ATCTGTTG | -0.049
GACACAAA | 0.2
CCTTTCTA | 0.165
CGTAGGAC | -0.0121
AGGCGAGA | -0.0565
AGAATGAG | -0.145
ACAAGAAA | 0.118
ACCAGGAC | -0.0533
ACTCACCG | -0.125
CGACTAGA | -0.157
CCAGGCTA | -0.284
AGAATCAC | 0.12
CCACGTCG | -0.27
ACAACGGG | 0.0834
GCTTACTA | 0.102
CGCGATAC | 0.00474
AATCCATA | 0.0806
CGGAATCC | -0.0886
CTCGTGCA | -0.0129
CTTGAGCA | 0.0418
ACGGCAAT | 0.45
CCGACGGA | -0.107
GTAGGACA | -0.0209
CATTTGAC | 0.0371
GAAAATTA | -0.0415

Sequence | PBM E-score
GGAACAAA | 0.105
GCGACTCA | -0.0205
GTCCCAAA | -0.122
CTAACTAC | -0.0793
TCACGTGA | 0.211
CAGGCTCG | -0.0929
ACTTCAGG | 0.0136
AGAACATA | 0.00125
ATACGAGC | 0.118
GTTCTGTA | 0.0215
CATACTGG | -0.0651
ATACTGAA | 0.101
AACACCTG | 0.00724
AGCCGCCG | 0.361
ATCATACG | 0.196
AAGGAACG | 0.0123
TAAAAAGA | 0.0945
ACGTGCGC | 0.165
CTTGACAC | -0.064
ATCCGGCC | -0.213
GCCCTATA | 0.206
CATGCTGA | -0.107
CAACGCCA | 0.0795
TTCCCAAA | 0.0505
CGTGATTA | -0.00773

Sequence | PBM E-score
CCAGGCGC | -0.113
GAGTTAAC | -0.0768
AGGCTATG | -0.196
GAACATCA | -0.0725
GCTCGTCC | -0.0754
ATGTGTAA | 0.00541
CAGTGCGC | -0.175
ACGACGAC | -0.0442
GAAGCATC | -0.213
CCAATGGA | -0.0655
CAGCTGGC | -0.0206
CGTTGACC | 0.0297
ACCCCAGG | -0.221
CTTAACGC | -0.0215
AACCAGCT | -0.0344
AGTCAGAT | -0.194
CTGGAACC | -0.275
AGGTCTAT | -0.115
AGATCAAT | 0.0248
TCTCGAGA | -0.01
ACCGCAGA | -0.0884
GCTTATAA | 0.163
